Binding signal data for 22 molecules are collected here from paper PMC12136788.

The list shows a part of the results.

First the molecules themselves.
T1: UNK ZnF1-3 (human, UniProt Q9C0B0 31-174)
T1 sequence: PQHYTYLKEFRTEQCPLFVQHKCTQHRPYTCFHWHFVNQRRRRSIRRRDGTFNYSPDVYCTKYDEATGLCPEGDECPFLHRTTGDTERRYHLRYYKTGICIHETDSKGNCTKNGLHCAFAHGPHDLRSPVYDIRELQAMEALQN

B1: chr6:128383251:128383252:-_ENSMUSG00000030357_ENSMUST00000032508|mus_hu|motif|central (ssRNA)
RNA: GGGAGUUCUACAGUCCGACGAUCGUUGAGGUGAGAGGCCAGUCGAAGGGCCUGUGCUUUCUGUGCUUCCUCAUUGGAAAAACGGGACUCAUAUUCCAGCCAAGACACGAUCUUCUUAUACUGUAGUAAAGCUUGCUUGUAUUUCAACAGAGGAUUGAGCAUCA
B2: chr13:100194276:100194277:-_ENSMUSG00000052727_ENSMUST00000064762|mus_mus|FALSE|FALSE (ssRNA)
RNA: GGGAGUUCUACAGUCCGACGAUCAACCUUAAAAAAACUUCAAUUUUUGUCUUACAAAAAACACUUAAAAUAAUAAUUAAAAAGAAAGACCAUCGUUUCAAAAUUUUCUUUGCGUUUUCCUGUAAAUGAAAACAUUUGUUAAAACAACAGAGGAUUGAGCAUCA
B3: 132614770_132615660_474_CDS_ENSMUSG00000030750_ENSMUST00000033006|mouse|control|control (ssRNA)
RNA: GGGAGUUCUACAGUCCGACGAUCCAGAGCCUUUCUAAACAGAUCCAGCUCGUUCUCUGCAAAAUCCGUAGCCAUUUUGGAAACUGAAGUUGUAGCAAGAUUCACCAGUGCAUAAAUGGGUCUCCCAUCAUCUUCCGUGACUCCCAACAGAGGAUUGAGCAUCA
B4: chr6:124662746:124662747:+_ENSMUSG00000004264_ENSMUST00000004375|mus_hu|FALSE|FALSE (ssRNA)
RNA: GGGAGUUCUACAGUCCGACGAUCCUCGGCCAGGAUAGUGUCCUGCUGCACUCCACCGAUCCGAUUGAAGAAGAUGGCUCUGUGCCCGCCUUCCACGGUGAACACAGAUUCGCGCACACCGUAGGCCACGGCGCCGGCCCCCAGCAACAGAGGAUUGAGCAUCA
B5: 46321053_46321173_2604_CDS_ENSG00000139218_ENST00000369367|human|control|control (ssRNA)
RNA: GGGAGUUCUACAGUCCGACGAUCUUCUUGUGGAGUGUCUUUGUUGGGUGACCAAGUUGUAGAUGGAGAAUGAAAUCUAGAUCUUCGAGUACGAGGCUUUUUGGUUUUAUCUAUGGUAUCUUUUGGGCUUUCAGAUGGUUGAGACAACAGAGGAUUGAGCAUCA
B6: chr15:103023242:103023243:-_ENSMUSG00000009575_ENSMUST00000118152|mus_mus|motif|central (ssRNA)
RNA: GGGAGUUCUACAGUCCGACGAUCAACUAGCAGCAUUGAUGAGGGGUUAAGGGAUUGGGGACAGAAACUCACCAAGGUCACGGAGUACUUCCAAACUUGGAAGUAGCUCAGUGAGGGCUAAAAAAACUUCGACUGAAGGUAUCCCAACAGAGGAUUGAGCAUCA
B7: chr12:53618122:53618123:+_ENSMUSG00000035133_ENSMUST00000110725|mus_hu|motif|central (ssRNA)
RNA: GGGAGUUCUACAGUCCGACGAUCUCUUGUUCCCUCUAAGUUGAUGUAUUCUUCAUAAUCAGGAUGAUUUUUUAAUUUAUUACGGACAGUUUUCCAAGUUGCAUGAUAAUCUCUCACAGUCUGCACAAGUUUUUCAAACUUAUCCAACAGAGGAUUGAGCAUCA
B8: chr7:87826631:87826632:+_ENSG00000008277_ENST00000398209|hu_hu|motif|central (ssRNA)
RNA: GGGAGUUCUACAGUCCGACGAUCGCAUCAGCAAACUGUGGAGGCCAGAAGUUUUGCUGGGCAUUUUGUUCUCUCACUCAACGGCUCACUCAAUAAAACUGCCUCCAGACUGUGCACAGGUUAAAGGGAUAUCACAUGUUUUGGCAACAGAGGAUUGAGCAUCA
B9: chr9:110467127:110467128:+_ENSMUSG00000044791_ENSMUST00000153838|mus_hu|FALSE|FALSE (ssRNA)
RNA: GGGAGUUCUACAGUCCGACGAUCUUCUUUUCCAUAUCUCUGGAACUGAUAGUCAAACGUUAACUCUGAGCCUGAAGGAACCAGUUUGGUGGUAAAAAACCCAACCCUCAGUUGUCCGUUCACAGUCCAUUUUUGGGUUUCACACAACAGAGGAUUGAGCAUCA
B10: chr2:153237265:153237266:-_ENSMUSG00000061411_ENSMUST00000109784|mus_mus|mus_mus_mus_hu_False|8_108 (ssRNA)
RNA: GGGAGUUCUACAGUCCGACGAUCAAAAAAAAGAAAAAAAAAGUGUCCUUGUGCCCAAAGUCUCAGGUGCUUGGAGUGUGGCUAGAAACAGCUCUUUUGGAUCCCACCUCUUUCAAAAACAAAAUGUCCAACUGGUGGAGGCAGCAACAGAGGAUUGAGCAUCA
B11: 142144148_142144364_600_3pUTR_ENSG00000114127_ENST00000264951|human|control|control (ssRNA)
RNA: GGGAGUUCUACAGUCCGACGAUCAUUUUAUGCUCUCCUUCUCCAGGAGUCUCAUGGCCUGAGAAGUAGAUGGUAACUCCUUGCCAUGACUUGUCUGUGGAAAUUUUCAUAUUUACAAAAUACUUCAGAUGUUCAUGUAACCUGCAACAGAGGAUUGAGCAUCA
B12: chr22:32879901:32879902:+_ENSG00000100225_ENST00000397426|hu_mus|hu_hu_hu_mus_False|38_98 (ssRNA)
RNA: GGGAGUUCUACAGUCCGACGAUCCUCUUCCAUACUCGCAUUAUCUUGAAUUGACUCAGCUUCAACAUUUUGACUAGGCCCUUCCAUACUGUCAUCAUUCCAAACACCAAAUGGGGUGGCCUGUCCUUGGGAUGAAUCAGUCCCCAACAGAGGAUUGAGCAUCA
B13: chr4:17845017:17845018:+_ENSG00000109805_ENST00000514176|hu_mus|hu_hu_hu_mus_False|8_58 (ssRNA)
RNA: GGGAGUUCUACAGUCCGACGAUCGCUCUCUUAACUUGUAUCUUCAUUAAGGAACUCUGCAAGGUUAAGUUUACUUUUUCUAGUGCUAGCUGUUUUGGCUCGUCUGGGUAAUCUCAUCUUCAUUUCUAUUCUGGUUCCAUGAUCCAACAGAGGAUUGAGCAUCA
B14: 79689884_79690004_1227_CDS_ENSG00000067715_ENST00000261205|human|control|control (ssRNA)
RNA: GGGAGUUCUACAGUCCGACGAUCUUGCUCAUUGAAGACAGGAUUAAGGGUUUUUCGGUGGACUUUUGUCUCAAAUUUCUUCUUCUUAUCAGGUAGCAGAAACACUUUCACGUAAGGAUCAGAUGUGCCCCCCAUGUCCAAGGCCAACAGAGGAUUGAGCAUCA
B15: chr12:48362563:48362564:+_ENSG00000134291_ENST00000256686|hu_hu|hu_hu_hu_mus_False|78_108 (ssRNA)
RNA: GGGAGUUCUACAGUCCGACGAUCUCCGAAGGGUGAAUCGAUAGACCCUUGCGGGGGUGGUAAAAACCACUUUGUAUGGGGAAGGAAAAGAAACGCCAAAAACUUUCCAAAAAGCGGGGGUGGGGUGAGGCGGGAGGGGGAGGUCAACAGAGGAUUGAGCAUCA
B16: chr7:44244176:44244177:+_ENSG00000106636_ENST00000223369|hu_mus|hu_hu_hu_mus_False|78_88 (ssRNA)
RNA: GGGAGUUCUACAGUCCGACGAUCACUGUCGCUCCGGACGUAGACAUGGCACAGAUAGUCUUGUUCUUUGACAGAAGCUCUGCUGCCUUUCCCCGAGCGUUCCACAAUCAGUUGACUUGUAAAGGUCAUGAAUUCCUGCACACUCAACAGAGGAUUGAGCAUCA
B17: 84674927_84675047_7096_3pUTR_ENSG00000065615_ENST00000369681|human|control|control (ssRNA)
RNA: GGGAGUUCUACAGUCCGACGAUCCUUCCCAUGGUCUUGGGCAGCUCUGGCCCUGUGGCUUUCAGGGUACAGCCUCCAUCCUGGCUGCUUUCAUGGGCUGGUGUUGAGUAUCUGCAGCUUUUCCAGGCACCUGGUACAAGCUGUCAACAGAGGAUUGAGCAUCA
B18: chr6:38652254:38652255:-_ENSG00000124767_ENST00000373365|hu_hu|hu_hu_hu_mus_False|48_98 (ssRNA)
RNA: GGGAGUUCUACAGUCCGACGAUCCGAGAACUUCAUAAUGGGAAAAUCAAGCUUCUGCAGGAGGGUCAGUCCAAGAACCCUCGUAUAAAAAUCCAGUGACUUCUUAGGAUCCUUAAUUCUUAGCAUCGUUUGCUGCAGUAGAAACAACAGAGGAUUGAGCAUCA
B19: chr5:71489826:71489827:+_ENSG00000131711_ENST00000296755|hu_hu|FALSE|FALSE (ssRNA)
RNA: GGGAGUUCUACAGUCCGACGAUCUGAGAGAUACUCGGUAAACUCAGAAAGUCCUUCCAUUUCUGGCAAGAUAGAAGCUGAAUUGAGUUUAAUAUUGAUGAAGUCUUGGAGAUUGUGUCUGUCAAGAUUGGAGUUCUUCCAGUCCAACAGAGGAUUGAGCAUCA
B20: chr2:160604868:160604869:+_ENSG00000136536_ENST00000409591|perfect_dup|FALSE|FALSE (ssRNA)
RNA: GGGAGUUCUACAGUCCGACGAUCUGCCUCUGGUUCAGAGCUAUGAUUUUGGCUGAGCGACGACAACCCCCAUCUUCGCCUAAGAAAUCUAAAUCCCUGAGAUGCUUCAGCUGCCCUGCCCUCACUGACGUCAGAGGACGAGGACAACAGAGGAUUGAGCAUCA
B21: chr8:117878989:117878990:-_ENSG00000164754_ENST00000297338|hu_hu|hu_hu_hu_mus_True|1_68 (ssRNA)
RNA: GGGAGUUCUACAGUCCGACGAUCCCAGAGGCCCUCGUUUACUGAGGACAAAAUGUGCGUAGAACAUUGUUCUGGCUUGCUAUGAAAUAAGAAGAAACCUGGAUCUCGGCGGGGAGCCGGGAGGGGUGGGUGGCCCGGGGGAGGCAACAGAGGAUUGAGCAUCA
B22: 103941370_103941490_1487_CDS_ENSG00000075413_ENST00000216288|human|control|control (ssRNA)
RNA: GGGAGUUCUACAGUCCGACGAUCUGCAUUCCCAAGCAUGGGACUGGCUGGAGCAAUUCCCUUUCCUCCAACAGCACUGCCACUUGAUUUCCGGGAGGAAAUUCCAUCUUCUUUGAGGUCACUAUCUGCAGUGCUGGUCUGACUCAACAGAGGAUUGAGCAUCA

The test has as its target T1, UNK ZnF1-3. Put plainly: nsRBNS (natural sequence RNA bind-n-seq); RBNS binding buffer (assumed for nsRBNS): 25 mM Tris pH 7.5, 150 mM KCl, 3 mM MgCl2, 0.01% Triton X-100, 500 ug/ml BSA, 20 U/ml SUPERase-In, 4 C; UNK is unkempt and MSI1 is Musashi-1; names of the RNAs are library labels; protein concentration not given here; high values mean tight binding.
For the molecule B1, the binding signal is 0.825 enrichment R.
For B2, the binding signal turned out to be 1.15 enrichment R.
The molecule B3 showed a binding signal of 1.02 enrichment R.
B4 had a binding signal of 0.653 enrichment R.
On to B5, for which the binding signal amounted to 0.862 enrichment R.
The figure for B6 is 1.29 enrichment R; for B7 it is 1.11 enrichment R; for B8 it is 1.87 enrichment R.
Regarding B9, the binding signal is 0.832 enrichment R.
B10 showed a binding signal of 1.73 enrichment R.
With B11 the figure was 0.586 enrichment R; with B12, 0.885 enrichment R; with B13, 0.368 enrichment R.
For the molecule B14, the binding signal was 1.23 enrichment R.
As to B15, the binding signal worked out at 2.15 enrichment R.
Consider B16, for which the binding signal was 0.772 enrichment R.
With B17 the figure was 0.483 enrichment R.
B18 showed a binding signal of 1.14 enrichment R.
As to B19, the binding signal came out at 0.825 enrichment R.
In turn, B20 returned a binding signal of 0.706 enrichment R.
Regarding B21, the binding signal stood at 2.06 enrichment R.
Consider B22, for which the binding signal stood at 0.868 enrichment R.
